{
  "source": "paper PMC6919601",
  "about": "“Identification of Plasmodium dipeptidyl aminopeptidase allosteric inhibitors by high throughput screening” (PLoS ONE, 2019)",
  "note": "The whole screen tested about 110,000 compounds, of which about 230 (0.21%) showed an effect of 50% or more. This is one part of the list.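 Further: 30 min substrate incubation versus DMSO and 10 µM JCP410 controls.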",
  "data": [
    {"target": "DPAP1 (Plasmodium falciparum, UniProt Q8IIJ9)", "sequence (Q8IIJ9 whole entry, looked up)": "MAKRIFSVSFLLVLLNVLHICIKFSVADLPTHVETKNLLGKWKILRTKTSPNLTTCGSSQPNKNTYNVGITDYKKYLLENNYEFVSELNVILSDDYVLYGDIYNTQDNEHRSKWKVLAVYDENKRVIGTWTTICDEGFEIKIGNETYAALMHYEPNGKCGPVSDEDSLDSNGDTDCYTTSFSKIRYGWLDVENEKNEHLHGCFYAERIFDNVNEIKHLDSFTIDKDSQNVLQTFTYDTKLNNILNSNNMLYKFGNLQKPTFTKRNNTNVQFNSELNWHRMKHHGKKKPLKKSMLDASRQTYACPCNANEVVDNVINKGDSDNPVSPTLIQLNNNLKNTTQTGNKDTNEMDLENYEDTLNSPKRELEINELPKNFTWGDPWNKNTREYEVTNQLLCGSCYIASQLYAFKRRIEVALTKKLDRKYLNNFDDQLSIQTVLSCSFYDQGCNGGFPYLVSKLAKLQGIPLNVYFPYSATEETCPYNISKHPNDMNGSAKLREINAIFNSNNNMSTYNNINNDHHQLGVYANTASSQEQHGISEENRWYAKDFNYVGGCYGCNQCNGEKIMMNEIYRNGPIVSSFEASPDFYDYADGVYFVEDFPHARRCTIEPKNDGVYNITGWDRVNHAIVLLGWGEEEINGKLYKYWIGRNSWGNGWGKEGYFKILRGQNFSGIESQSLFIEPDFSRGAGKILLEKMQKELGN", "assay": "primary screen, percent inhibition; read by cleavage of a fluorogenic dipeptide substrate; higher = more effect of the substance", "design": "species or system P. falciparum D10 trophozoite lysates; single well", "units": {"% Inhibition @ 10 uM": "%"}, "values": [
      {"smiles": "CCCCc1c(O)n2nc(C)ccc2[n+](-c2ccc(C)cc2)c1=O", "% Inhibition @ 10 uM": 2.32},
      {"smiles": "CCOC(=O)C1CCN(Cc2ccc(Cl)c(Cl)c2)CC1", "% Inhibition @ 10 uM": 1.2},
      {"smiles": "O=C(Nc1nnc(C23C[C@H]4C[C@@H](C2)C[C@@H](C3)C4)s1)C1CCN(C(=O)NC2CCCCC2)CC1", "% Inhibition @ 10 uM": -4.67},
      {"smiles": "Cc1cccc(OCCCCCN2CCCC2)c1C", "% Inhibition @ 10 uM": 4.33},
      {"smiles": "O=C(NCc1cccnc1)c1csc2c1CCCC2", "% Inhibition @ 10 uM": -1.44},
      {"smiles": "c1ccc(Cn2c(CSc3nnnn3-c3ccccc3)nc3ccccc32)cc1", "% Inhibition @ 10 uM": 4.54},
      {"smiles": "COc1ccc2ccnc(C3C(=O)c4ccccc4C3=O)c2c1", "% Inhibition @ 10 uM": -2.91},
      {"smiles": "CCc1cccc(NC(=O)CCC(=O)Nc2cccc(CC)c2)c1", "% Inhibition @ 10 uM": -7.01},
      {"smiles": "COc1ccc2c(c1)-c1nc(NC(=O)C34CC5CC(CC(C5)C3)C4)sc1CC2", "% Inhibition @ 10 uM": -1.92},
      {"smiles": "COc1ccc(Nc2oc(COc3ccccc3C)nc2C#N)cc1", "% Inhibition @ 10 uM": -3.16},
      {"smiles": "N#CC1=C(N)OC2=C(C(=O)CCC2)C1c1ccc(F)cc1F", "note": "(stereo not drawn)", "% Inhibition @ 10 uM": -3.72},
      {"smiles": "O[C@]12CCCC[C@@H]1[C@@H](c1ccc(F)cc1)NCC2", "% Inhibition @ 10 uM": 7.92},
      {"smiles": "Cc1nn(-c2ccccc2)c2c1C(c1ccc(F)cc1)C(C#N)=C(N)O2", "note": "(stereo not drawn)", "% Inhibition @ 10 uM": -0.996},
      {"smiles": "CCC1CCc2c(sc(NC(=O)c3ccc4c(c3)OCO4)c2C(N)=O)C1", "note": "(stereo not drawn)", "% Inhibition @ 10 uM": -1.61},
      {"smiles": "COc1cc2ccccc2cc1C(=O)Nc1cccc(S(N)(=O)=O)c1", "% Inhibition @ 10 uM": 0.751},
      {"smiles": "Cc1ccc(-n2cnc3cc(C(=O)NC4CCCC4)ccc32)cc1Cl", "% Inhibition @ 10 uM": -0.256},
      {"smiles": "CC/C(=N/OC(=O)c1ccc(OC)cc1)C(=O)c1cccs1", "% Inhibition @ 10 uM": -1.4},
      {"smiles": "O=C(Cn1cnc2onc(-c3ccc(F)cc3)c2c1=O)N1CCC(N2CCCCC2)CC1", "% Inhibition @ 10 uM": -3.05},
      {"smiles": "O=C(O)C1CCCN(S(=O)(=O)c2cccc(F)c2)C1", "note": "(stereo not drawn)", "% Inhibition @ 10 uM": 2.05},
      {"smiles": "Nc1nonc1-c1noc(CCCN2C(=O)c3ccccc3C2=O)n1", "% Inhibition @ 10 uM": -5.6},
      {"smiles": "CCCCCC(=O)Nc1nc2nc(C)c(Cl)c(C)n2n1", "% Inhibition @ 10 uM": -3.08},
      {"smiles": "O=C(O)CCC(=O)NCc1ccccc1", "% Inhibition @ 10 uM": -6.22},
      {"smiles": "O=C(c1cc2n(n1)C(C(F)(F)F)CC(c1ccc(Br)cc1)N2)N1CCCCC1", "note": "(stereo not drawn)", "% Inhibition @ 10 uM": -0.0938},
      {"smiles": "CN1CCN(CCc2ccccc2)CC1", "% Inhibition @ 10 uM": 0.472},
      {"smiles": "Cc1ccc(S(=O)(=O)NCC(C)NC(=O)CN2CCCCC2)cc1", "note": "(stereo not drawn)", "% Inhibition @ 10 uM": -3.13},
      {"smiles": "COC(=O)N1CCN(c2ccc([N+](=O)[O-])cc2)CC1", "% Inhibition @ 10 uM": 0.708},
      {"smiles": "CCCn1c(=N)n(CC(=O)OC)c2ccccc21", "% Inhibition @ 10 uM": -4.98},
      {"smiles": "COC(=O)c1cc(S(=O)(=O)NCCCN2CCN(Cc3ccccc3)CC2)cn1C", "% Inhibition @ 10 uM": 2.29},
      {"smiles": "C#CCSc1nnc(-c2ccccc2)c(O)n1", "% Inhibition @ 10 uM": -1.55},
      {"smiles": "CC(=O)/C(C)=C(\\NC(=O)c1ccccc1)c1ccccc1", "% Inhibition @ 10 uM": 2.58},
      {"smiles": "CCOc1ccc(C2CC(=O)NC3=C2C(=O)CCC3)cc1OC", "note": "(stereo not drawn)", "% Inhibition @ 10 uM": 6.28},
      {"smiles": "CC1=C(C(=O)OCC2CCCCC2)C(c2ccc(Cl)c(Cl)c2)NC(=O)N1", "note": "(stereo not drawn)", "% Inhibition @ 10 uM": -3.14},
      {"smiles": "Cc1oc(-c2ccc(C(=O)NC(C)c3ccccc3)cc2)nc1COc1ccccc1", "note": "(stereo not drawn)", "% Inhibition @ 10 uM": -4.97},
      {"smiles": "N#CC1=C(SCC(=O)O)NC(=O)C(C#N)C12CCCC2", "note": "(stereo not drawn)", "% Inhibition @ 10 uM": -3.66},
      {"smiles": "COc1ccc2c(c1)CCC1C2=NN(C(C)=O)C1c1ccc(Br)cc1", "note": "(stereo not drawn)", "% Inhibition @ 10 uM": -7.02},
      {"smiles": "COc1cccc(/C=C(\\C)C(=O)c2c(C)cc(C)nc2O)c1OC", "% Inhibition @ 10 uM": 21.3},
      {"smiles": "COc1ccc(NCN2C(=O)c3ccccc3C2=O)cn1", "% Inhibition @ 10 uM": 4.22},
      {"smiles": "O=C(c1ccccc1)c1cccn1CC(=O)N1CCC(N2CCCCC2)CC1", "% Inhibition @ 10 uM": -0.522},
      {"smiles": "CCn1ncc(C(=O)Nc2c(C)nn(Cc3ccc(Cl)c(Cl)c3)c2C)c1C", "% Inhibition @ 10 uM": -6.66},
      {"smiles": "CC(=O)N(c1ccc(C)cc1)C1SC(=O)N(c2ccccc2)C1=O", "note": "(stereo not drawn)", "% Inhibition @ 10 uM": 4.74},
      {"smiles": "O=[N+]([O-])c1ccc(-n2nnnc2/C=C/c2ccccc2)cc1", "% Inhibition @ 10 uM": -5.9},
      {"smiles": "Cc1noc(C)c1CCNC(=O)C1CCCN(c2ncnc3c2nc2n3CCCCC2)C1", "note": "(stereo not drawn)", "% Inhibition @ 10 uM": 0.721},
      {"smiles": "Cc1noc(C)c1CSc1nc2ccccc2[nH]1", "% Inhibition @ 10 uM": -3.23},
      {"smiles": "O=C(NC1CCCC1)C1CCN(c2nnc(-n3cccc3)s2)CC1", "% Inhibition @ 10 uM": -1.6},
      {"smiles": "CC(=O)N1C(=O)C2(C(C#N)=C(N)OC3=C2C(=O)CC(c2ccco2)C3)c2ccccc21", "note": "(stereo not drawn)", "% Inhibition @ 10 uM": -1.84},
      {"smiles": "Cc1ccc(N2CCN(C(=O)c3ccccc3NC(=O)c3ccccc3C(=O)O)CC2)cc1", "% Inhibition @ 10 uM": -9.82},
      {"smiles": "CCOc1ccc(N(CC(=O)NC2CCCCC2)S(=O)(=O)c2ccc(C)cc2)cc1", "% Inhibition @ 10 uM": -4.31},
      {"smiles": "CC(=O)N1CCC2(CC1)OC(=O)C(C)=C2C(=O)NCCc1ccc(Cl)cc1", "% Inhibition @ 10 uM": 0.822},
      {"smiles": "O=C(Nc1cc(Cl)ccc1Cl)C1CCN(S(=O)(=O)c2ccccc2)CC1", "% Inhibition @ 10 uM": -3.21},
      {"smiles": "OCCN(CCO)C1CCSC1", "note": "(stereo not drawn)", "% Inhibition @ 10 uM": -1.15},
      {"smiles": "O=C1c2ccccc2-c2nn(C(=O)c3ccco3)c3cccc1c23", "% Inhibition @ 10 uM": -0.958},
      {"smiles": "CC(C)Oc1ccccc1/C=C1\\SC(=N)N(c2nccs2)C1=O", "% Inhibition @ 10 uM": 50.1},
      {"smiles": "CCOC(=O)C1=C(CNC(C)c2ccccc2)NC(=O)NC1c1ccccc1", "note": "(stereo not drawn)", "% Inhibition @ 10 uM": -4.97},
      {"smiles": "COc1ccc(/C=C2N=C(/C=C/c3ccc(C)cc3)OC\\2=O)cc1", "% Inhibition @ 10 uM": -3.62},
      {"smiles": "Cc1cccc(CSc2nc(O)c3[nH]cnc3n2)c1", "% Inhibition @ 10 uM": -1.35},
      {"smiles": "O=C(CSc1nc2ccccc2s1)c1ccc(-c2ccccc2)cc1", "% Inhibition @ 10 uM": 1.66},
      {"smiles": "CCOc1c(Cl)cc(C(=O)N(Cc2cccc(OC)c2)C2CCS(=O)(=O)C2)cc1Cl", "note": "(stereo not drawn)", "% Inhibition @ 10 uM": -3.12},
      {"smiles": "O=C(NCc1ccccn1)C1CCCCC1", "% Inhibition @ 10 uM": 0.408},
      {"smiles": "COc1ccc2[nH]cc(CCNC(=O)c3cnn(-c4ccc(F)cc4)c3C3CCNCC3)c2c1", "% Inhibition @ 10 uM": -4.07},
      {"smiles": "O=S(=O)(c1ccccc1)c1nnn2c1nc(N1CCC3(CC1)OCCO3)c1cc(Cl)ccc12", "% Inhibition @ 10 uM": 0.291},
      {"smiles": "Cc1ccc(S(=O)(=O)N(Cc2nc(-c3ccccc3)no2)C2CCCCC2)cc1", "% Inhibition @ 10 uM": 3.74},
      {"smiles": "O=C1C=C(N2CCCCC2)c2ccccc2C1=O", "% Inhibition @ 10 uM": -6.17},
      {"smiles": "C[C@@H](C[C@H](NC(=O)c1ccc(-c2ccccc2Cl)cc1)C(=O)NC1(C#N)CCN(CC(F)(F)F)CC1)c1ccccc1", "% Inhibition @ 10 uM": -3.14}
    ]}
  ]
}
